Experimental data reported in article PMC2808332.
Results are given in words; binding and its absence hold for the method and conditions named. For some assays here: In cells and extracts the contact can be indirect. Some results given as binding are weak or reduced against the parent protein; the word gives no strength.

By UniProt entry, the sequences of proteins in these tests, tags left out.
UniProt Q9UBF6: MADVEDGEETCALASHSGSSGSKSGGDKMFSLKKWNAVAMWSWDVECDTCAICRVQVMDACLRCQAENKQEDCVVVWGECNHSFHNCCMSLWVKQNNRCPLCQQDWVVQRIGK
UniProt P21579: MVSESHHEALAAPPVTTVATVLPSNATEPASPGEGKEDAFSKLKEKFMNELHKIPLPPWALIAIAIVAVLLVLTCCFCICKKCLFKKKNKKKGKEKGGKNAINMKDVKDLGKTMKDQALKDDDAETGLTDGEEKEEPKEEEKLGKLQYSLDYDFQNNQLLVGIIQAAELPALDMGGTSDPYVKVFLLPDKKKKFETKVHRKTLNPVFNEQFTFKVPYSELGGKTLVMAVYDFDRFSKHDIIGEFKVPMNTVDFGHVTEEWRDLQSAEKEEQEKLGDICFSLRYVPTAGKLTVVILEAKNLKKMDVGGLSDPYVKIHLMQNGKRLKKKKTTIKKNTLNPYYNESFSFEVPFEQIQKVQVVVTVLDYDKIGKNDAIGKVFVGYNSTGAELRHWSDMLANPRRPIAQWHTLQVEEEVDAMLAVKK

Key:
[1] = target: T1, TANK, on the E. coli colony macroarray (human) (UniProt Q92844); test: peptide or protein array; E. coli colony macroarrays (ImaGenes UniPex, more than 30,000 recombinant human proteins) probed with full-length GST-NEMO; data not shown; only the binder purified
T1 sequence: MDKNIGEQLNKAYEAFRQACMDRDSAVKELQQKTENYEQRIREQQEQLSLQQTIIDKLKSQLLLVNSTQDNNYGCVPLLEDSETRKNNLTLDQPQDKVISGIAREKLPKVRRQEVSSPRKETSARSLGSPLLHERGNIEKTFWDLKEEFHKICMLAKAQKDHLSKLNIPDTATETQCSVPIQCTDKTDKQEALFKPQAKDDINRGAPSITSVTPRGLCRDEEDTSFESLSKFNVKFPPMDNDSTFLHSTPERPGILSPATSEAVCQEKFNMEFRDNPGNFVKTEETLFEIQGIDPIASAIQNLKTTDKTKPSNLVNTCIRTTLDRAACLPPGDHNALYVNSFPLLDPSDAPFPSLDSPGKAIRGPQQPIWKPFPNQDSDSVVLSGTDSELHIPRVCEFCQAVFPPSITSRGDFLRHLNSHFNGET

[2] = target: Xpress-tagged NEMO (human) (UniProt Q9Y6K9); test: co-IP; as the other co-IPs (Xpress-tagged NEMO, anti-Xpress, HEK-293T lysate) but binding and washing with 0.1% NP-40; used for SAG
[3] = target: GST-NEMO (human) (UniProt Q9Y6K9); test: pull-down; GST or GST-NEMO immobilised; lysates of transiently transfected HEK-293T cells applied; washing, SDS-PAGE, immunoblot; only the target purified
[4] = target: Xpress-tagged NEMO (human) (UniProt Q9Y6K9); test: co-IP; Xpress-tagged NEMO and partner co-expressed in HEK-293T; anti-Xpress, protein A/G agarose; binding and washing with 0.5% NP-40 (20 mM Tris-HCl pH 7.5, 137 mM NaCl, 0.5 mM DTT, 10% glycerol, 2 mM EDTA), 4°C
[5] = target: NEMO, mammalian two-hybrid fusion (human) (UniProt Q9Y6K9); test: two-hybrid; mammalian two-hybrid, CheckMate/Flexi system (Promega) in HEK-293T; pFN10A (activation domain) and pFN11A (binding domain); firefly/Renilla luciferase; partner/NEMO compared with partner/empty vector

Substance | binding [3] | binding [4] | binding [5] | other results
GST-NEMO (from UniProt Q9Y6K9 1-419) | – | – | – | binding [1]: binds
SAG, mammalian two-hybrid fusion (from UniProt Q9UBF6 1-113) | – | – | binds | –
SYT1, mammalian two-hybrid fusion (from UniProt P21579 1-422) | – | – | binds | –

Now from value to substance, other results behind:

binding [3] | binding [4] | binding [5] | Substance | other results
binds | no binding (condition: with 0.5% NP-40) | – | SAG (sensitive to apoptosis gene 1), expressed in HEK-293T (from UniProt Q9UBF6 1-113) | binding [2]: binds
binds | binds | – | SYT1-FLAG (from UniProt P21579 1-422) | –
